# Measured values reported in the supplement of paper PMC11417369.
# ± gives the standard deviation of the averaged measurements. This is one part of the list.
# Test system: PfAP2-G AP2 domain (GST-tagged)
# Test: gcPBM binding intensity (ln(normalized median fluorescence intensity)); higher = stronger DNA binding
# Method in brief: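 In this array assay, P. falciparum DNA-binding domains with a GST tag, expressed in E. coli, were applied for 1 h to primer-extended double-stranded 36-bp intergenic genomic probes and negative controls on an Agilent 4 × 180k array. Bound protein was visualised with Alexa488 anti-GST antibody at 488 nm. Binding intensity is the highest Masliner-normalised natural-log median intensity across replicate spots of either probe orientation.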
row,Sequence,gcPBM binding intensity (ln)
1,CTGTGTTTTGGTTGTACACACGCTACATTCTATATT [CACACA_site2698],11.5 ± 0.91
2,AAAATAATTGTTTACACACCCATTTGTAATTTTACC [CACACA_site3614],10.03 ± 0.071
3,CCAACATAGAGGGGCACACACATATATACCTAAAAA [CACACA_site5088],10.7 ± 0.51
4,AATGCTTTTCATCAAGTGCAATATGTTAATACAAAC [GTGCAC_site9619],10.1 ± 0.24
5,ATTTACATTATATTGAATATGCCATATTATATTATT [CACACA_negctrl_site811],9.735 ± 0.021
6,TCTAACATATTTTTAATACACACTTAAAAAAGTACT [CACACA_site1366],10.9 ± 0.49
7,ATAGACTTTTGTTTTGTTTTATTTTATTGTATTGTA [CACACA_negctrl_site618],9.76 ± 0.18
8,ATATTATATTGGATGTTGCACTTAACAAAAGGATAT [GTGCAC_site9478],10.2 ± 0.23
9,TATAAAAGTAGACACACACACATATAAATATAAATA [CACACA_site6567],10.3 ± 0.54
10,TCTATATCAACCAGTTGTACTGAATTTACTATATTT [XGTACX_site4205],11 ± 0.67
11,GTAGACTGAAACCACACACACATATATAAATATATT [CACACA_site6433],10.2 ± 0.16
12,AAAAAAAAAAATGGTTGTACTTTTTTTATTTGGTGC [XGTACX_site4498],11.6 ± 1
13,TGTATGTATAATTGAGTGCACAGAAAAAAAAAAGAA,10.6 ± 0.54
14,TAATATATATATATTACACACACGTATTATTAAATA [CACACA_site432],10.4 ± 0.21
15,AGAAAAAAAAAAAAAAAACACACGGTACATTCAAAG [CACACA_site2],10.5 ± 0.2
16,TAATTTTCATATTTCTGTACATATATTATAAATATA [XGTACX_site3480],11 ± 0.69
17,AATAAAAAAGAATATACACACATAAATATAAAATAT [CACACA_site683],9.82 ± 0.22
18,ATATATATATATATGTGTACTAATAAGGTTAAATAA [XGTACX_site1535],11.3 ± 0.76
19,AAATATATATTTCTTAGTACATATGTATTTTTTTTT [XGTACX_site938],10.8 ± 0.49
20,AATTAAAAAGAAAAAAGTACATATTTTTTTAAAAAA [XGTACX_site7384],11.4 ± 0.61
21,TTTGACAAATTATTGTGTACACAATATTATTATATA [XGTACX_site8320],11.7 ± 1
22,ACAAAATGTAGATATTGTACATATTGTAGATATTGT [XGTACX_site7619],10.9 ± 0.53

row,Sequence,gcPBM binding intensity (ln)
1,ACCTATATAAGTTATACACACAAATATAGATATATA [CACACA_site7356],10 ± 0.16
2,TAATATTAATCCTAGTGTACATTAATTTATATGTAT [XGTACX_site3583],11.3 ± 0.72
3,ATTATATATATATAAACACACAAATATTTTTATATA [CACACA_site5005],9.52 ± 0.33
4,TTTATATGTATTAAGTGTACACATATAATGTGTTTG [XGTACX_site6629],11.5 ± 0.86
5,TATAAGAGGATATATACACACAAAAATATGTACAGT [CACACA_site6885],11.5 ± 0.92
6,TTATTTTTTTTTTATTGTACTAGGAAAATTTCGATA [XGTACX_site702],10.9 ± 0.64
7,ATTTAAGATTTAATCACACACATATAGATTATAGAC [CACACA_site7383],10.1 ± 0.14
8,ATGAAGAAGTGTAAATGTACATTTTATGTAGAACAA [XGTACX_site6925],10.9 ± 0.43
9,TTTACAGAAAGTTACATACACACTAATATTTACACC [CACACA_site1009],10.4 ± 0.33
10,CTTCCTTAGGAATGTACACACATATATAATATGTTG [CACACA_site461],11.5 ± 0.87
11,TACAGACAGAAATGCACACACATATTTATATTTATA [CACACA_site7139],10.2 ± 0.29
12,TTTTAAATAATTCGTAATTATAATTATGGAAAAAAG [CACACA_negctrl_site152],9.95 ± 0.18
13,AAATAAATTAAAATAAATTAAATTAAATTAGCATTA [GTGCAC_negctrl_site531],9.48 ± 0.2
14,TGTATGTTATGTATATGTACATATCTTTGTATTTAT [XGTACX_site6920],11 ± 0.53
15,ACCTTATTTATTATTGCATGTGACCATCAGATGGTA [TGCATGCA_site288],11.1 ± 0.66
16,TTTATTTTTTACCAAGTGCAATATATTATAATAATA,10.3 ± 0.37
17,TTTTTTTTTTTTTTTGTGCACAATTATTTCAATTTT [GTGCAC_site9884],10.4 ± 0.61
18,TATTTATAAGTTTACGCATGCATATAATTATTAATA [TGCATGCA_site311],10 ± 0.22
19,TACAAAATATTTTACACACACATATAAATACAGATA [CACACA_site5447],10.185 ± 0.007
20,AAGATATGTACTAATACACACACATATATATATATA [CACACA_site8249],11.2 ± 0.79
21,AAAAAAAAAAACAATACATGCATAATATTAATAAAA [TGCATGCA_site913],9.77 ± 0.057
22,TTCATACATAGAAAATGTACATATATATATATATAT [XGTACX_site1895],11 ± 0.71
